Results from PubChem BioAssay AID588591 (National Center for Advancing Translational Sciences (NCATS), 2011).
Screen size: about 390,000 compounds; about 4,700 (1.2%) were called active. Inconclusive results, whose numbers are uncertain, are shown with a selection of clear calls. The call rests on the fitted dose curve; in most records, active means well fitted inhibition curve with a large enough effect; inconclusive means small, poorly fitted or top-dose-only effect, or another doubt; inactive means no such curve, though single readings can be large or run the other way. Where the call is inconclusive, the potency comes from a doubtful curve fit.

target: DNA polymerase eta (Homo sapiens) (UniProt Q9Y253); assay: qHTS for Inhibitors of Polymerase Eta; conditions: recombinant Pol eta, fluorescent DNA replication assay; series mostly up to 114 µM
Summary of the method: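 Pol eta (10 nM) was preincubated with compounds for 15 min at room temperature, after which fluorescent replication substrate (50 nM final) was added to start the reaction. Fluorescence was read kinetically at 0 and 10 min.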
Potency means the concentration at half of the fitted maximal effect; tags describe the fitted curve by direction and shape.

Sequence of UniProt Q9Y253 (Q9Y253 whole entry, looked up): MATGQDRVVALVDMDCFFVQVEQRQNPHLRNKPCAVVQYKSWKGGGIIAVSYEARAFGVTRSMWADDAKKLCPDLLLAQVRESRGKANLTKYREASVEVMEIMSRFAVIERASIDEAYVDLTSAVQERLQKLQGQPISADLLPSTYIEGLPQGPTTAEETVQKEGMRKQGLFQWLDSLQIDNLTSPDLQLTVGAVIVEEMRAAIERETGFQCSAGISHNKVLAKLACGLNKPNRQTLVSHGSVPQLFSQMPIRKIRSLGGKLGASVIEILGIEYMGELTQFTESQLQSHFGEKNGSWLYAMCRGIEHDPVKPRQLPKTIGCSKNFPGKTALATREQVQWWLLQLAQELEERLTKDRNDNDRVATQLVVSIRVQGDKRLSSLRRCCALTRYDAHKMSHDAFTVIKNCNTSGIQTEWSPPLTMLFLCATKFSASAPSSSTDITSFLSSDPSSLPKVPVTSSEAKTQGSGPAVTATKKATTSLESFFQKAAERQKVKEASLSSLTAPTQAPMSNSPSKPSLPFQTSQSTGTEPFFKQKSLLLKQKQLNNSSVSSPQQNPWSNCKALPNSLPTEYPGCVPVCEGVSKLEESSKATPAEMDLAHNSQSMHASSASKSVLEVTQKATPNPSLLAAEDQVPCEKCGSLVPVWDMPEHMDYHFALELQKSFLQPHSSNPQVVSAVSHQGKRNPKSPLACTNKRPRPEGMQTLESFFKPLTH

With CCc1ccc(-n2c(SCC(=O)N3CCC(C(=O)O)CC3)nnc2-c2ccncc2)cc1 as the compound, how does the Potency read?
The Potency was “inactive”.

Cc1cc(C)n2cc(CSc3ncccc3C(=O)O)nc2n1 was tested. Which Potency did it give?
Its Potency is inconclusive: 39.8 µM [inhibitor, partial curve, poor fit].

Which Potency does the source give for Cc1ccc(S(=O)(=O)Oc2ccc(/C=C3\C(=N)N4N=C(S(C)(=O)=O)SC4=NC3=O)cc2)cc1 here?
Its Potency is active: 20 µM.

With Cc1ccc(-c2nc3ccccc3o2)cc1NC(=O)Cc1ccc(Cl)cc1 as the compound, how does the Potency read?
The Potency was “inactive”.

Which Potency does the source give for CCOC(=O)C(Cc1c[nH]c2ccccc12)NC(=O)c1ccccc1Br (stereo not given) here?
Its Potency is “inactive”.

CN(Cc1ccccc1)c1oc(COc2ccccc2F)nc1C#N was tested. Which Potency did it give?
Its Potency is inconclusive: 100 µM [inhibitor, partial curve, poor fit].

For NC(=O)c1ccsc1NC(=O)CSc1nnc(Nc2ccccc2)s1, which Potency is on record?
The Potency was inconclusive: 17.8 µM [inhibitor, full curve].

How did the Potency turn out when Cn1c(SCC(=O)Nc2ccccc2F)nnc1C1CCCCC1 was run?
Its Potency is inconclusive: 22.4 µM [inhibitor, partial curve, poor fit].

With O=C(Nc1cccc2ccccc12)c1cccc([N+](=O)[O-])c1 as the compound, how does the Potency read?
The Potency was inconclusive: 100 µM [inhibitor, partial curve, poor fit].

How did the Potency turn out when COc1cccc(-c2nn3c(-c4ccco4)nnc3s2)c1 was run?
The Potency was inconclusive: 22.4 µM [inhibitor, single point].

Which Potency does the source give for Cc1ccc(CNC(=O)c2ccc3c(O)c(S(=O)(=O)c4ccc(Cl)cc4)c(=O)[nH]c3c2)cc1 here?
Its Potency is inconclusive: 89.1 µM [inhibitor, partial curve, poor fit].

For COc1ccc2c(c1)C(=NNC(=O)c1ccccn1)c1cc(OC)ccc1-2, which Potency is on record?
The Potency was inconclusive: 12.6 µM [inhibitor, full curve].

How did the Potency turn out when NC(=O)C1CCN(S(=O)(=O)c2ccc(N3CCCCS3(=O)=O)cc2)CC1 was run?
The Potency was “inactive”.

Cc1csc(NC(=O)CSc2nnc(NC(=O)COc3ccc(Cl)cc3)s2)n1 was tested. Which Potency did it give?
Its Potency is inconclusive: 28.2 µM [inhibitor, partial curve, poor fit].

For O=C(NC1CCCC1)C(c1ccc(F)cc1)N(C(=O)c1csnn1)C1CC1 (stereo not given), which Potency is on record?
The Potency was inconclusive: 89.1 µM [inhibitor, single point].

Which Potency does the source give for C/C(=N\Nc1ccc(F)cc1F)c1ccccc1O here?
The Potency was “inactive”.

How did the Potency turn out when CN(C)/C=C/C1=C([N+](=O)[O-])C(c2cccc([N+](=O)[O-])c2)NC(=O)N1 (stereo not given) was run?
Its Potency is inconclusive: 56.2 µM [inhibitor, partial curve, poor fit].

With Cc1ccc(NC(=O)C2CCCN2C(=O)OCc2ccccc2)cc1F (stereo not given) as the compound, how does the Potency read?
The Potency was “inactive”.

With O=C(Nc1ccc2nc(-c3ccccc3)[nH]c2c1)c1ccco1 as the compound, how does the Potency read?
Its Potency is inconclusive: 31.6 µM [inhibitor, partial curve, poor fit].

With O=C(c1cc2cc(Cl)ccc2[nH]1)N1CCN(Cc2ccc3c(c2)OCO3)CC1 as the compound, how does the Potency read?
Its Potency is inconclusive: 20 µM [inhibitor, partial curve, poor fit].

How did the Potency turn out when Cc1c(CCOC(=O)C2C3CC4CC(C3)CC2C4)sc[n+]1CC(=O)c1ccc(Br)cc1 (stereo not given) was run?
The Potency was inconclusive: 79.4 µM [inhibitor, partial curve, poor fit].

COCC(C)Nc1ncnc2c1cnn2-c1ccc(C)c(C)c1 (stereo not given) was tested. Which Potency did it give?
The Potency was “inactive”.

Which Potency does the source give for CC(C(=O)N1CCCCC1)n1sc2ccccc2c1=O (stereo not given) here?
Its Potency is inconclusive: 39.8 µM [inhibitor, single point].

COc1cc(NC(=O)Cn2c(-c3cncs3)nc3ccccc32)cc(OC)c1OC was tested. Which Potency did it give?
The Potency was “inactive”.

With N=C1/C(=C/c2cccs2)C(=O)N=C2SN=C(SCc3ccccc3)N12 as the compound, how does the Potency read?
The Potency was active: 25.1 µM.

For COc1ccc(CNC(=O)CSc2ccsc2[N+](=O)[O-])cc1, which Potency is on record?
Its Potency is active: 50.1 µM.

CCn1c(=O)c(-c2cc(=O)[nH][nH]2)c(O)c2ccccc21 was tested. Which Potency did it give?
The Potency was “inactive”.

Which Potency does the source give for C#CC1(NC(=S)Nc2cccc(OC)c2)CCCCC1 here?
The Potency was “inactive”.

For Cc1cccc(S(=O)Cc2ccc(C(=O)NC3CCCCCC3)o2)c1 (stereo not given), which Potency is on record?
Its Potency is “inactive”.

How did the Potency turn out when CCCOc1ccc(Cc2nn3c(=O)/c(=C/c4ccco4)sc3nc2=O)cc1 was run?
Its Potency is active: 25.1 µM.

CCc1cc(C(N)=O)c(NC(=O)c2ccc(OC)cc2)s1 was tested. Which Potency did it give?
The Potency was inconclusive: 56.2 µM [inhibitor, partial curve, poor fit].

For CC1C(=O)Nc2ccc(S(=O)(=O)NCCc3ccc(Cl)cc3)cc2NC1=O (stereo not given), which Potency is on record?
The Potency was inconclusive: 56.2 µM [inhibitor, partial curve].

For COc1ccccc1CNC(=O)c1ccc2c(c1)CCN2S(=O)(=O)c1ccc(Cl)cc1, which Potency is on record?
Its Potency is “inactive”.

Which Potency does the source give for O=C(Nc1ccccc1N1CCOCC1)c1cc(-c2ccco2)nc2ccccc12 here?
The Potency was inconclusive: 15.8 µM [inhibitor, full curve, poor fit].

Which Potency does the source give for Cn1c(SCC(=O)Nc2ccc(NC(=O)c3cccc(F)c3)cc2)nnc1-c1ccncc1 here?
The Potency was inconclusive: 100 µM [inhibitor, single point].

For N=C(N)SCc1ccccn1, which Potency is on record?
Its Potency is “inactive”.

How did the Potency turn out when CCN(c1ccc(NC(=O)COC(=O)c2cc3ccccc3oc2=O)cc1)C(C)C was run?
The Potency was inconclusive: 100 µM [inhibitor, partial curve, poor fit].

Cc1cccc2c1N(CCCOc1ccc(C(C)(C)C)cc1)C(=O)C2=O was tested. Which Potency did it give?
The Potency was inconclusive: 70.8 µM [inhibitor, partial curve, poor fit].

Which Potency does the source give for Cc1ccc2c(c1)c(=O)c(S(=O)(=O)c1ccc(C)c(C)c1)cn2CC(=O)Nc1ccccc1 here?
The Potency was “inactive”.

For O=C(COC(=O)CCN=C1NS(=O)(=O)c2ccccc21)NC1CCCCCCC1, which Potency is on record?
Its Potency is inconclusive: 100 µM [inhibitor, partial curve, poor fit].

For N#Cc1c(SCc2c(Cl)cccc2Cl)nc(N)[nH]c1=S, which Potency is on record?
The Potency was inconclusive: 89.1 µM [inhibitor, single point].

How did the Potency turn out when Cc1ccc(-n2c(C)nc3oc4ccccc4c(=O)c3c2=O)cc1 was run?
The Potency was active: 79.4 µM.

With CCN(CC)CCNC(=O)c1nn(-c2ccc(Cl)cc2)c2c1CCc1cc(OC)ccc1-2 as the compound, how does the Potency read?
Its Potency is inconclusive: 56.2 µM [inhibitor, partial curve, poor fit].

O=C(Oc1coc(CSc2nnc(NC(=O)C3CC3)s2)cc1=O)c1c(F)cccc1F was tested. Which Potency did it give?
Its Potency is inconclusive: 79.4 µM [inhibitor, partial curve].

Which Potency does the source give for CC[n+]1c(/C=C/c2c[nH]c3ccccc23)ccc2cc(C)ccc21 here?
The Potency was inconclusive: 35.5 µM [inhibitor, full curve].

Which Potency does the source give for CC(=O)c1ccc(NC(=O)Nc2ccc3c(c2)N(C)C(=O)CS3)cc1 here?
Its Potency is inconclusive: 15.8 µM [inhibitor, full curve].

For O=C(OCc1cc(=O)n2nc(-c3cccs3)sc2n1)c1ccccc1Br, which Potency is on record?
The Potency was active: 79.4 µM.

Which Potency does the source give for CCN(Cc1ccccc1)C(=O)c1cc(-c2ccc(OC)c(OC)c2)nc2ccccc12 here?
Its Potency is inconclusive: 79.4 µM [inhibitor, partial curve, poor fit].

For CCOc1ccccc1NC(=O)c1ccc2c(Cl)c3c(nc2c1)CCCC3, which Potency is on record?
Its Potency is inconclusive: 100 µM [inhibitor, partial curve, poor fit].

With COc1ccc(CC(=O)NCc2nc(-c3ccccc3)no2)cc1 as the compound, how does the Potency read?
Its Potency is “inactive”.

With Nc1ccc2cc3[nH]c4cc(N)ccc4c3nc2c1 as the compound, how does the Potency read?
The Potency was active: 4.47 µM.

Which Potency does the source give for O=C(N/N=C/c1ccc(OC(=O)c2ccccc2)cc1)c1cccnc1 here?
The Potency was inconclusive: 35.5 µM [inhibitor, partial curve].

For O=c1cc[nH]c2c1ccc1c(=O)cc[nH]c12, which Potency is on record?
Its Potency is active: 28.2 µM.

How did the Potency turn out when C=CCNc1nc(C(=O)OCC(=O)Nc2ccc(S(N)(=O)=O)cc2)cs1 was run?
Its Potency is active: 56.2 µM.

With CNC(=O)C1CCN(Cc2cc3ccccc3n2Cc2cccc(C)c2)CC1 as the compound, how does the Potency read?
The Potency was inconclusive: 56.2 µM [inhibitor, partial curve, poor fit].

With CCCCNS(=O)(=O)c1cc(-c2nn(C)c(=O)c3ccccc23)ccc1C as the compound, how does the Potency read?
The Potency was inconclusive: 35.5 µM [inhibitor, full curve].

Which Potency does the source give for CC(C)(C)OC(=O)[C@H](Cc1ccccc1)NC(=O)c1ncn2c1c(=O)[nH]c1ccc(Br)cc12 here?
The Potency was inconclusive: 56.2 µM [inhibitor, partial curve].

Which Potency does the source give for O=C(Nc1ccc(O)cc1)/C(=C\C=C\c1ccccc1)NC(=O)c1ccccc1 here?
The Potency was “inactive”.

COCc1cc(C)nc(SCc2ccc([N+](=O)[O-])cc2)c1C#N was tested. Which Potency did it give?
Its Potency is “inactive”.

Which Potency does the source give for COc1cccc(Cn2c(C)c(CNCc3ccccc3Cl)c(C(=O)O)c2C)c1 here?
The Potency was “inactive”.

With Cc1ccccc1OCc1ccc(-c2nc(C#N)c(N3CCN(c4ccccc4)CC3)o2)o1 as the compound, how does the Potency read?
Its Potency is “inactive”.

With CCOC(=O)c1ccc(NC(=O)CSc2nnc(COc3ccccc3)n2C)cc1 as the compound, how does the Potency read?
Its Potency is inconclusive: 39.8 µM [inhibitor, partial curve, poor fit].

Which Potency does the source give for CC(C)OC(=O)CSc1nc(N)c(C#N)c(-c2ccco2)c1C#N here?
Its Potency is inconclusive: 28.2 µM [inhibitor, single point].

CN1C(=O)/C(=C/c2ccc(-c3ccccc3[N+](=O)[O-])o2)SC1=Nc1ccc(Cl)c(C(=O)O)c1 was tested. Which Potency did it give?
The Potency was active: 20 µM.

NS(=O)(=O)c1ccc2c(c1)C(=NO)c1cc(S(N)(=O)=O)ccc1-2 was tested. Which Potency did it give?
Its Potency is “inactive”.

CC(=C\C(=O)O)/C(=C/c1ccc(C)o1)C(=O)O was tested. Which Potency did it give?
The Potency was active: 7.94 µM.

CS(=O)(=O)c1ccc(C(=O)N2CCN(Cc3ccccc3)CC2)cc1 was tested. Which Potency did it give?
The Potency was inconclusive: 89.1 µM [inhibitor, partial curve, poor fit].

How did the Potency turn out when Cc1cccc(OCc2nnc(SCc3nc4cc(C(F)(F)F)ccc4c(=O)[nH]3)o2)c1 was run?
Its Potency is inconclusive: 100 µM [inhibitor, partial curve, poor fit].

How did the Potency turn out when CC(=O)c1ccc(S(=O)(=O)Nc2ccc(C(=O)N(C)CC(=O)Nc3cccc(C)c3C)cc2)cc1 was run?
The Potency was active: 31.6 µM.

How did the Potency turn out when Cc1ccc(CNc2ccc(O)cc2)cc1 was run?
Its Potency is active: 28.2 µM.
